Test results from the supplement of paper PMC12889115.
The list shows a part of the results. Rule as the data show it: active = 25% or less and inactive = the rest. Most values come without repeats; read them as rough.

system: Salmonella enterica serovar Typhimurium SL1344; assay: intramacrophage bacterial GFP load (SAFIRE), percent of DMSO control (% of DMSO); higher = more intracellular bacteria (less inhibition); details: 25 µM; system: infected RAW 264.7 macrophages
Procedure: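 Secondary screen of the 553 primary hits at 25 µM. (i) S. Typhimurium SL1344 grown in Mueller-Hinton broth with 0.5 µg/mL polymyxin B, OD600 read after 18 h. (ii) SAFIRE assay: RAW 264.7 macrophages infected with S. Typhimurium sifB::gfp (MOI 30); compound added 2 h post-infection; cells fixed at 18 h; GFP-positive pixel fraction per macrophage imaged by confocal microscopy and expressed as % of DMSO control.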
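Also: compounds tested were the hits of an earlier 50 µM broth growth screen of a drug-like diversity library run with polymyxin B.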

Intramacrophage bacterial GFP load, inactive:
CN(Cc1nccs1)C(=O)CC(c1ccccc1)c1cccc(Cl)c1 (stereo not given) 72.2
Cc1ccc(CN(C)C(=O)CC2(c3cccc(C(F)(F)F)c3)CC(=O)N(C3CC3)C2=O)cc1 (stereo not given) 239
Cc1ccn(CC(=O)N2CCCC(C(=O)c3ccc(-c4ccccc4)cc3)C2)n1 (stereo not given) 75.4
O=C(Nc1cccc(-c2ccc(F)cc2)c1)C1CCCN(C(=O)C2CCC2)C1 (stereo not given) 124
CCOC(=O)C1(CCCc2ccccc2)CCN(C(=O)C2CC=CCC2)CC1 (stereo not given) 72.1
